Entries after “also recorded” stand apart in the source; their conditions may differ. Certain results were filed several times, with different values. This is not the full list of results. An entry can have further records. The rule behind the calls is not given here. Results that share an entry differ for a reason that is not stated; they may come from other doses, times, organisms or constructs than stated. Records carry a tag for their origin. A, B and so on number the origins entry by entry. Brackets with × count equal records among those shown.
System: CCRIS mutagenicity, Ames/micronucleus/aberration tests
Assay: CCRIS mutagenicity studies
[1] = End Point: In vitro chromosomal aberrations, Test System: Chinese hamster lung (CHL/IU) cells, Metabolic Activation: None
[2] = Test System: MOUSE LYMPHOMA, Strain/Indicator: L5178Y (TK+/TK-), Metabolic Activation: NONE, Method: SUSPENSION/PLATE
[3] = End Point: IN VITRO CHROMOSOMAL ABERRATIONS, Test System: CHL CELLS, Metabolic Activation: NONE

Q: With CC[C@@]1(O)C[C@H](O[C@H]2C[C@H](N(C)C)[C@H](O[C@H]3C[C@H](O)[C@H](O[C@H]4CCC(=O)[C@H](C)O4)[C@H](C)O3)[C@H](C)O2)c2c(cc3c(c2O)C(=O)c2c(O)cccc2C3=O)[C@H]1C(=O)OC as the compound, how does the mutagenic call (Test System: AMES SALMONELLA TYPHIMURIUM, Strain/Indicator: TA102, Metabolic Activation: NONE, Method: STANDARD PLATE) read?
A: Its mutagenic call is “inactive; negative [study A] and active; positive [study B]”.

Q: With O=C1C(Cl)=C(Cl)C(=O)C(Cl)=C1Cl as the compound, how does the mutagenic call [1] read?
A: Its mutagenic call is “active; positive (structural changes and ploidy); also recorded: active; positive (structural changes and ploidy). toxicity at 0.015 and 0.018 mg/ml (2×)”.

Q: Which mutagenic call (Test System: AMES SALMONELLA TYPHIMURIUM, Strain/Indicator: TA98, Metabolic Activation: NONE, Method: PREINCUBATION) does the source give for CC(C)[N+](=O)[O-] here?
A: The mutagenic call was “inactive; negative [study A] and active; positive [study B] and inactive; negative [study C]”.

Q: And the mutagenic call (Test System: CHINESE HAMSTER V-79, Strain/Indicator: V-79/6-THIOGUANINE, Metabolic Activation: NONE)?
A: The mutagenic call was “active; positive [study A] and inactive; negative [study B]”.

Q: How did the mutagenic call (Test System: AMES SALMONELLA TYPHIMURIUM, Strain/Indicator: TA98, Metabolic Activation: NONE, Method: STANDARD PLATE) turn out when c1ccoc1 was run?
A: Its mutagenic call is “inactive; negative [study A] and active; positive [study B]”.

Q: And the mutagenic call (Test System: AMES SALMONELLA TYPHIMURIUM, Strain/Indicator: TA100, Metabolic Activation: NONE, Method: STANDARD PLATE)?
A: The mutagenic call was “active; positive [study A] and inactive; negative [study B]”.

Q: What about the mutagenic call [2] of the same compound?
A: Its mutagenic call is “inactive; negative and active; positive”.

Q: Which mutagenic call (End Point: In vitro chromosomal aberrations, Test System: Chinese hamster ovary (CHO) cells, Metabolic Activation: Rat, Liver, S-9) does the source give for CCCSP(=O)(OCC)SCCC here?
A: Its mutagenic call is “active; positive (all doses) and active; positive (high dose only)”.

Q: CC(C)(Oc1ccc(C2CC2(Cl)Cl)cc1)C(=O)O (centres undefined) was tested. Which mutagenic call (End Point: IN VITRO CHROMOSOMAL ABERRATIONS, Test System: RAT HEPATOCYTES, Metabolic Activation: NONE) did it give?
A: The mutagenic call was “active; positive; dose dependent effect and active; positive”.

Q: What about the mutagenic call (End Point: IN VITRO MICRONUCLEUS, Test System: RAT HEPATOCYTES, Metabolic Activation: NONE) of the same compound?
A: The mutagenic call was “active; positive; significant at top dose only; also recorded: active; positive”.

Q: What does the source list for Nc1ccc(Cl)cc1N?
A: mutagenic call (Test System: E. COLI, Strain/Indicator: WP2 UVRA, Metabolic Activation: HAMSTER, LIVER, S-9, Method: STANDARD PLATE): inactive; negative (2×) and active; positive; mutagenic call (Test System: E. COLI, Strain/Indicator: WP2 UVRA, Metabolic Activation: RAT, LIVER, S-9, AROCLOR 1254, Method: STANDARD PLATE): inactive; negative (2×) and active; positive

Q: [Na+] was tested. Which mutagenic call (End Point: IN VITRO CHROMOSOMAL ABERRATIONS, Test System: CHO-WBL CELLS, Metabolic Activation: NONE) did it give?
A: Its mutagenic call is “active; positive (structural changes); osmolality of solution decisive factor; also recorded: active; positive (structural changes, ploidy, endo-replication)”.

Q: With CNc1ccc(O)cc1 as the compound, how does the mutagenic call (Test System: AMES SALMONELLA TYPHIMURIUM, Strain/Indicator: TA100, Metabolic Activation: HAMSTER, LIVER, S-9, AROCLOR 1254 (10%), Method: PREINCUBATION) read?
A: The mutagenic call was “inactive; negative [10 to 1000 µg/plate] and active; positive [10 to 2000 µg/plate]”.

Q: How did the mutagenic call (End Point: IN VITRO CHROMOSOMAL ABERRATIONS, Test System: CHO CELLS, Metabolic Activation: RAT, LIVER, S-9, AROCLOR 1254) turn out when COC(=O)[C@H]1[C@H]2C[C@@H]3c4[nH]c5cc(OC)ccc5c4CCN3C[C@H]2C[C@@H](OC(=O)c2cc(OC)c(OC)c(OC)c2)[C@@H]1OC was run?
A: Its mutagenic call is “inactive; negative; also recorded: inactive; negative; precipitation occurred at 200 ug/ml”.

Q: For N.N.[Br-].[Br-].[Pt+2], which mutagenic call (Test System: AMES SALMONELLA TYPHIMURIUM, Strain/Indicator: TA98, Metabolic Activation: RAT, LIVER, S-9, AROCLOR 1254, Method: PREINCUBATION) is on record?
A: The mutagenic call was “active; positive and inactive; negative”.

Q: And the mutagenic call (Test System: AMES SALMONELLA TYPHIMURIUM, Strain/Indicator: TA100, Metabolic Activation: RAT, LIVER, S-9, AROCLOR 1254, Method: PREINCUBATION)?
A: The mutagenic call was “active; positive and inactive; negative”.

Q: How did the mutagenic call [3] turn out when Nc1ccc([N+](=O)[O-])cc1N was run?
A: Its mutagenic call is “active; positive (structural changes); also recorded: active; positive (structural changes); precipitation occurred at 1.5 mg/ml”.

Q: O=Cc1ccc(CO)o1 was tested. Which mutagenic call (Test System: Ames Salmonella typhimurium, Strain/Indicator: TA100, Metabolic Activation: None, Method: Preincubation) did it give?
A: Its mutagenic call is “inactive; negative; also recorded: active; positive (weak response; increase in number of mutants <2 times controls )”.

Q: CCCOC(=O)c1cc(O)c(O)c(O)c1 was tested. Which mutagenic call (End Point: IN VITRO CHROMOSOMAL ABERRATIONS, Test System: CHO CELLS, Metabolic Activation: NONE) did it give?
A: The mutagenic call was “active; positive (2×) and active; positive; weak response”.

Q: How did the mutagenic call (Test System: AMES SALMONELLA TYPHIMURIUM, Strain/Indicator: TA100, Metabolic Activation: NONE, Method: PREINCUBATION) turn out when O=NN1CCSC1 was run?
A: The mutagenic call was “inactive; negative [study A] and active; positive [study A] and active; positive [study B]”.

Q: Which mutagenic call (End Point: IN VITRO CHROMOSOMAL ABERRATIONS, Test System: CHINESE HAMSTER OVARY CELLS, Metabolic Activation: RAT, LIVER, S-9, AROCLOR 1254) does the source give for OC1C2(Cl)C3(Cl)C4(Cl)C(Cl)(Cl)C5(Cl)C3(Cl)C1(Cl)C5(Cl)C24Cl (centres undefined) here?
A: Its mutagenic call is “inactive; negative and active; positive”.

Q: CC(=O)OC/C=C(C)/C=C/C=C(C)/C=C/C1=C(C)CCCC1(C)C was tested. Which mutagenic call (End Point: IN VITRO MICRONUCLEUS, Test System: V79 CELLS, Metabolic Activation: NONE) did it give?
A: Its mutagenic call is “inactive; negative and active; positive”.

Q: Which mutagenic call (Test System: AMES SALMONELLA TYPHIMURIUM, Strain/Indicator: TA98, Metabolic Activation: HAMSTER, LIVER, S-9, AROCLOR 1254 (30%), Method: PREINCUBATION) does the source give for O=[N+]([O-])C(Br)(Br)Br here?
A: Its mutagenic call is “active; positive and inactive; negative”.

Q: What about the mutagenic call (Test System: AMES SALMONELLA TYPHIMURIUM, Strain/Indicator: TA98, Metabolic Activation: RAT, LIVER, S-9, AROCLOR 1254 (30%), Method: PREINCUBATION) of the same compound?
A: The mutagenic call was “active; positive and inactive; negative”.

Q: And the mutagenic call (Test System: AMES SALMONELLA TYPHIMURIUM, Strain/Indicator: TA100, Metabolic Activation: RAT, LIVER, S-9, AROCLOR 1254 (30%), Method: PREINCUBATION)?
A: Its mutagenic call is “active; positive and inactive; negative”.

Q: How did the mutagenic call (Test System: AMES SALMONELLA TYPHIMURIUM, Strain/Indicator: TA98, Metabolic Activation: RAT, LIVER, S-9, AROCLOR 1254, Method: STANDARD PLATE) turn out when O[C@@H]1C=Cc2c(ccc3c2ccc2ccccc23)[C@H]1O was run?
A: Its mutagenic call is “inactive; negative [study A] and active; positive [study B]”.

Q: What does the source list for Oc1ccc(O)cc1?
A: mutagenic call (End Point: IN VITRO MICRONUCLEUS, Test System: CHINESE HAMSTER V79 CELLS, Metabolic Activation: NONE): inactive; negative; also recorded: active; positive; also recorded: inactive; negative; authors report equivocal results; mutagenic call [1]: active; positive (structural changes and ploidy).toxic at 0.010 mg/ml; also recorded: active; positive (structural changes and ploidy). weak ploidy response; also recorded: active; positive (structural changes)

Q: For Nc1ccc2c(ccc3c4ccccc4ccc23)c1, which mutagenic call (Test System: AMES SALMONELLA TYPHIMURIUM, Strain/Indicator: TA100, Metabolic Activation: RAT LIVER S-9, AROCLOR 1254 (10%), Method: STANDARD PLATE) is on record?
A: Its mutagenic call is “active; positive [0.2 to 2.0 µg/plate] and inactive; negative [5 to 100 µg/plate]”.

Q: With Nc1c(Cl)cc([N+](=O)[O-])cc1[N+](=O)[O-] as the compound, how does the mutagenic call [3] read?
A: The mutagenic call was “inactive; negative; also recorded: inactive; negative; authors report equivocal results for ploidy changes at 0.025 and 0.05; also recorded: inactive; negative; authors report equivocal results for ploidy changes at 0.1 mg/ml; prec”.

Q: With O=[N+]([O-])c1ccc(Cl)c(Cl)c1 as the compound, how does the mutagenic call [1] read?
A: The mutagenic call was “active; positive (structural changes and ploidy). precipitation observed in culture medi (2×); also recorded: active; positive (ploidy). precipitation observed in culture medium at 0.16 mg/ml; 0.20”.

Q: Cn1c(N)nc2c3cccnc3ccc21 was tested. Which mutagenic call (Test System: AMES SALMONELLA TYPHIMURIUM, Strain/Indicator: TA98, Metabolic Activation: RAT, LIVER, S-9, Method: PREINCUBATION) did it give?
A: The mutagenic call was “inactive; negative [study A] and active; positive [study B]”.

Q: How did the mutagenic call [2] turn out when Nc1ccccc1C(=O)O was run?
A: Its mutagenic call is “active; positive and inactive; negative”.

— PubChem BioAssay AID1259407 (Chemical Carcinogenesis Research Information System (CCRIS), 2018)
